Here are results for nine compounds from the antibiotic and cytotoxicity screens of Wong et al. (2023).

The subject of test [1] is HSkMC (human skeletal muscle cells). As to the kind of experiment: cytotoxicity call (relative viability < 0.9). The conditions noted are these: 10 µM.
Test [2] relates to S. aureus RN4220. As to the kind of experiment: growth inhibition call (relative growth <= 0.2). The conditions noted are these: 50 µM.

The list shows a part of the results.

For `C[C@@H]1CN([C@H](C)CO)C(=O)c2cc(NC(=O)Nc3ccc(F)cc3)ccc2O[C@H]1CN(C)C(=O)Nc1ccc(C(F)(F)F)cc1`, the cytotoxicity call in test [1] was “inactive”. The growth inhibition call in test [2] is “inactive”.
Turning to `O=C(Nc1ccccc1)C1=C[C@H](c2ccc3c(c2)Cc2ccccc2-3)C[C@H](OCc2ccc(CO)cc2)O1`, the cytotoxicity call in test [1] was “inactive”. Moreover, in test [2], the growth inhibition call was “inactive”.
As to `Cc1ccc(S(=O)(=O)Nc2ccc3c(c2)C(=O)N([C@H](C)CO)C[C@@H](C)[C@H](CN(C)C(=O)Nc2ccccc2)OCCCC[C@@H](C)O3)cc1`, the cytotoxicity call in test [1] was “inactive”. Moreover, in test [2], the growth inhibition call was “inactive”.
Consider `C[C@H](CO)N1C[C@H](C)[C@H](CN(C)CC2CC2)OCCCC[C@H](C)Oc2ccc(NC(=O)CCC(F)(F)F)cc2C1=O`, for which the cytotoxicity call in test [1] is “inactive”. Besides, the growth inhibition call in test [2] was “inactive”.
Consider `O=C(Nc1ccc(C(F)(F)F)cc1)Nc1ccc2c(c1)[C@@H]1C[C@H](CC(=O)N3CCc4ccccc4C3)O[C@@H](CO)[C@@H]1O2`, for which the cytotoxicity call in test [1] was “inactive”. The growth inhibition call in test [2] is “inactive”.
As to `C[C@@H]1CN([C@@H](C)CO)S(=O)(=O)c2ccc(C#Cc3ccccc3F)cc2O[C@@H]1CN(C)CC1CC1`, the cytotoxicity call in test [1] is “inactive”. In test [2], the growth inhibition call was “inactive”.
In the case of `C[C@@H]1CN([C@H](C)CO)C(=O)c2cc(NC(=O)Nc3ccc4c(c3)OCO4)ccc2O[C@@H]1CN(C)Cc1ccc(Cl)c(Cl)c1`, the cytotoxicity call in test [1] is “inactive”. For the same compound, the growth inhibition call in test [2] was “inactive”.
As to `C[C@@H]1CN([C@@H](C)CO)S(=O)(=O)c2ccc(-c3ccc(C(=O)N(C)C)cc3)cc2O[C@H]1CN(C)C(=O)C1CCOCC1`, the cytotoxicity call in test [1] was “inactive”. Besides, in test [2], the growth inhibition call was “inactive”.
Take `C[C@H]1CN([C@@H](C)CO)S(=O)(=O)c2ccc(C3=CCCC3)cc2O[C@@H]1CN(C)S(=O)(=O)c1cn(C)cn1`: the cytotoxicity call in test [1] is “inactive”. Moreover, the growth inhibition call in test [2] is “inactive”.
